Laboratory results from patent US20250297009A1 (BIOTHEUS, published 2025).

T1: Human TGF-β3 (PeproTech, 100-36E) (human, UniProt P10600 301-412)
T1 sequence (looked up): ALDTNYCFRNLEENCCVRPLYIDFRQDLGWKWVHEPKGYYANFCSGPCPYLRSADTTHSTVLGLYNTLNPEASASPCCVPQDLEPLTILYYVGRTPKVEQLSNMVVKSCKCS

T2: Cynomolgus monkey PD-1-his protein (cynomolgus monkey PD-1 extracellular domain with his tag) (cynomolgus monkey, UniProt Q15116 partial chain (human entry))
T2 construct: also called Cyno PD-1-his; not shown: his tag
T2 chain: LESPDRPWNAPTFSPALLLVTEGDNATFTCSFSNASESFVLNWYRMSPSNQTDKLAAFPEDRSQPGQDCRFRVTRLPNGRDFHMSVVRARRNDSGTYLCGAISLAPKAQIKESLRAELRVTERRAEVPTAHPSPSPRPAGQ


What was measured:
[1] = target: T3, cynomolgus monkey PD-1 (Uniprot: BOLAJ3 as printed) on CHO-S cells (cynomolgus monkey); assay: flow cytometry on CHO cells overexpressing cynomolgus monkey PD-1 according to legend paragraph 157 and Example 11 (the title on the sheet prints CHO-huPD-1), fluorescent secondary antibody
T3 construct: whole, on cells; also called CHO-cynoPD-1 cells; CHO cells overexpressing cynomolgus monkey PD-1

[2] = target: T4, human PD-1 (Uniprot: Q15116) on cells (human, UniProt Q15116 25-288); assay: flow cytometry blocking assay on CHO cells overexpressing human PD-1; blocked ligand: human PD-L1; 54872-TGF-βRII pre-incubated with human TGF-β1
T4 construct: whole, on cells; The cell type is named under assay or readout; also called CHO-huPD-1 cells; CHO cells overexpressing human PD-1

[3] = target: T4, human PD-1 (Uniprot: Q15116) on cells; assay: flow cytometry on CHO cells overexpressing human PD-1; without TGF-β1
[4] = target: T4, human PD-1 (Uniprot: Q15116) on cells; assay: flow cytometry on CHO cells overexpressing human PD-1, fluorescent secondary antibody
[5] = target: T4, human PD-1 (Uniprot: Q15116) on cells; assay: flow cytometry on CHO cells overexpressing human PD-1; 54872-TGF-βRII pre-incubated with human TGF-β1
[6] = target: T5, Human TGF-β1 (Acrobiosystems, TG1-H421) (human, UniProt P01137 partial chain); assay: ELISA, human TGF-β1 coated, mouse anti-human Fc-HRP detection
T5 construct: also called human TGF-β1 protein

[7] = target: T5, Human TGF-β1 (Acrobiosystems, TG1-H421); assay: co-binding ELISA, TGF-β1 coated, detection with biotin-huPD-1 and streptavidin-HRP
[8] = target: human PD-1 protein (ELISA coat or Biotin-PD-1 of Example 16) (human, UniProt Q15116 partial chain, limits assumed); assay: co-binding ELISA, human PD-1 protein coated, detection with biotin anti-TGF-βRII antibody and streptavidin-HRP
[9] = target: T1, Human TGF-β3 (PeproTech, 100-36E); assay: ELISA, human TGF-β3 coated, mouse anti-human Fc-HRP detection
[10] = target: T4, human PD-1 (Uniprot: Q15116) on cells; assay: flow cytometry blocking assay on CHO cells overexpressing human PD-1; blocked ligand: human PD-L1; without TGF-β1
[11] = target: T2, Cynomolgus monkey PD-1-his protein …; assay: BLI (ForteBio), Fc-scFv loaded on AHQ sensor, 100 nM PD-1-his in solution, monovalent, 1:1 model
Protocol: (§1) The binding dissociation constant (KD) values of the antibody obtained in Example 1 binding to human and cynomolgus monkey PD-1 were determined by biofilm optical interference technology (ForteBio). Fortebio affinity determination was carried out according to the existing method (Este, P et al. High throughput solution-based measurement of antibody-antigen affinity and epitope binning. Mabs, 2013.5(2): p. 270-8), and the extracellular amino acid sequences of human and cynomolgus monkey PD-1 were as set forth in SEQ ID NO:20 and 21, respectively.
(§2) The sensor loaded with antibody was exposed to 100 nM PD-1-his antigen until the plateau phase, and then the sensor was transferred to the assay buffer for at least 2 minutes for dissociation rate measurement. The kinetic analysis was performed using a 1:1 binding model.

[12] = target: T6, Human PD-1-his protein (human PD-1 extracellular domain with his tag) (human, UniProt Q15116 partial chain); assay: as above
T6 construct: also called PD-1-his antigen; not shown: his tag
Protocol: as §1, §2

[13] = target: T4, human PD-1 (Uniprot: Q15116) on cells; assay: flow cytometry, competition with bio-human PD-L1-Fc (0.5 µg/mL) on CHO-huPD-1 cells
[14] = target: T4, human PD-1 (Uniprot: Q15116) on cells; assay: flow cytometry on CHO-S cells overexpressing human PD-1
Excerpt: (§3) By transfecting human PD-1 (Uniprot: Q15116), cynomolgus monkey PD-1 (Uniprot: BOLAJ3) cDNA pCHO1.0 vector (purchased from Invitrogen) into CHO-S cellsand following with pressure screening, CHO-S cells overexpressing human PD-1 (CHO-huPD-1 cells) and CHO-S cells overexpressing cynomolgus monkey PD-1 (CHO-cynoPD-1 cells) were produced. The overexpressed cells after expansion culture were adjusted to the appropriate cell density and added to a 96-well flow plate, centrifuged and then added with gradiently diluted samples, and incubated at 4° C. for 30 minutes. Washing was performed twice with PBS, fluorescent secondary antibody correspondingly diluted to the appropriate concentration was added, incubated at 4° C. for 30 minutes, and washed twice with PBS. The cells were resuspended in PBS, and detected on a CytoFlex flow cytometer, and the corresponding MFI was calculated. Graphpad software was used for graphical analysis to obtain EC₅₀ values.

[15] = target: T3, cynomolgus monkey PD-1 (Uniprot: BOLAJ3 …); assay: flow cytometry on CHO-S cells overexpressing cynomolgus monkey PD-1
Excerpt: as §3

T4 sequence (Q15116 25-288): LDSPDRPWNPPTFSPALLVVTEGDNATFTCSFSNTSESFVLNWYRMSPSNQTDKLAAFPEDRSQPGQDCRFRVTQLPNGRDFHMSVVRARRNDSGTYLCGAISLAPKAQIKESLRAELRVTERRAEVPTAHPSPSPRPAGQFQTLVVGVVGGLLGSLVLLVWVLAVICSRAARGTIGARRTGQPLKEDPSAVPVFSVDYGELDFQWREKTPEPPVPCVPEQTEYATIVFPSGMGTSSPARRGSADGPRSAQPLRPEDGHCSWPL
T5 sequence (P01137 279-390 limits assumed): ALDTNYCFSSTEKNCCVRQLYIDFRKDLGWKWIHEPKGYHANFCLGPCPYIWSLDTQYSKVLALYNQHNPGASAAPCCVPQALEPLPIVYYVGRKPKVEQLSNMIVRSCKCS

| Binder | EC50 (read off the curve) [1] [nM] | IC50 (read off the curve) [2] [nM] | EC50 (read off the curve) [3] [nM] | EC50 (read off the curve) [4] [nM] | EC50 (read off the curve) [5] [nM] | EC50 (read off the curve) [6] [nM] | EC50 (read off the curve) [7] [nM] | EC50 (read off the curve) [8] [nM] | EC50 (read off the curve) [9] [nM] | IC50 (read off the curve) [10] [nM] | Kd [11] [nM] | Kd [12] [nM] | IC50 [13] [nM] | EC50 [14] [nM] | EC50 [15] [nM] |
| --- | --- | --- | --- | --- | --- | --- | --- | --- | --- | --- | --- | --- | --- | --- | --- |
| anti-PD-1/TGF-β fusion protein 54872-TGF-βRII (other, also called PD-1 antibody/TGF-βRII extracellular region fusion protein) heavy: QVQLVQSGAEVKKPGASVKVSCKASGYTFTEYYIYWVRQAPGQGLEWIGGINPSNGGTNFNEKFKPRVTMTVDTSTSTAYMELSSLRSEDTAVYYCTVRDFRFDKGFKYWGQGTLVTVSSASTKGPSVFPLAPSSKSTSGGTAALGCLVKDYFPEPVTVSWNSGALTSGVHTFPAVLQSSGLYSLSSVVTVPSSSLGTQTYICNVNHKPSNTKVDKKV[sequence of human IgG1 Fc with changes not given]GGGGAGGGGAGGGGAGGGGAGIPPHVQKSVNNDMIVTDNNGAVKFPQLCKFCDVRFSTCDNQKSCMSNCSITSICEKPQEVCVAVWRKNDENITLETVCHDPKLPYHDFILEDAASPKCIMKEKKKPGETFFMCSCSSDECNDNIIFSEEYNTSNPD light: EIVLTQSPATLSLSPGERATLSCRASKSVSTSGLNYVHWYQRKPGQAPRLLIYLGSYLDSGVPARFSGSGSGTDFTLTISSLEPEDFAVYYCQQSWELPLTFGGGTKVEIKRTVAAPSVFIFPPSDEQLKSGTASVVCLLNNFYPREAKVQWKVDNALQSGNSQESVTEQDSKDSTYSLSSTLTLSKADYEKHKVYACEVTHQGLSSPVTKSFNRGEC | ~10 | ~7 | ~9 | ~9 | ~7 | ~0.3 | ~0.7 | ~0.07 | ~0.2 | ~7 |  |  |  |  |  |
| ADI-54872-1 (anti-PD-1 scFv derivative, Fc-scFv) (Fc fusion, Fc at the N-terminus of the scFv; also called anti-PD-1 scFv molecule; anti-PD-1 Fc-scFv protein) [sequence of human IgG1 Fc not given]GGGSGGGGSQVQLVQSGAEVKKPGASVKVSCKASGYTFTEYYIYWVRQAPGQCLEWIGGINPSNGGTNFNEKFKPRVTMTVDTSTSTAYMELSSLRSEDTAVYYCTVRDFRFDKGFKYWGQGTLVTVSSGGGGSGGGGSGGGGSGGGGSEIVLTQSPATLSLSPGERATLSCRASKSVSTSGLNYVHWYQRKPGQAPRLLIYLGSYLDSGVPARFSGSGSGTDFTLTISSLEPEDFAVYYCQQSWELPLTFGCGTKVEIK |  |  |  |  |  |  |  |  |  |  | 1.05 | 1.17 | 7.14 | 5.74 | 6.45 |
| ADI-63628 (anti-PD-1 scFv derivative, Fc-scFv) (Fc fusion, Fc at the N-terminus of the scFv) [sequence of human IgG1 Fc not given]GGGAGGGGAQVQLVQSGAEVKKPGASVKVSCKASGFTFTEYYIYWVRQAPGQCLEWIGGINPSNGGTNFNEKFKPRVTMTVDTSTSTAYMELSSLRSEDTAVYYCTVRDFRFDKGFKYWGQGTLVTVSSGGGGSGGGGSGGGGSGGGGSEIVLTQSPATLSLSPGERATLSCRASKSVSTSGLNYVHWYQRKPGQAPRLLIYLGSYRDSGVPARFSGSGSGTDFTLTISSLEPEDFAVYYCQQSWELPLTFGCGTKVEIK |  |  |  |  |  |  |  |  |  |  | 0.238 | 0.39 | 6.11 | 4.82 | 5.18 |
